# The full ranking holds about 33,000 sequences; the median of “E-score (-0.5 to 0.5)” is about -0.011, and the highest 2% start at about 0.28. The list shows a part of the results.
# Target: T1, Gcr1 (UniProt P07261)
# T1 sequence: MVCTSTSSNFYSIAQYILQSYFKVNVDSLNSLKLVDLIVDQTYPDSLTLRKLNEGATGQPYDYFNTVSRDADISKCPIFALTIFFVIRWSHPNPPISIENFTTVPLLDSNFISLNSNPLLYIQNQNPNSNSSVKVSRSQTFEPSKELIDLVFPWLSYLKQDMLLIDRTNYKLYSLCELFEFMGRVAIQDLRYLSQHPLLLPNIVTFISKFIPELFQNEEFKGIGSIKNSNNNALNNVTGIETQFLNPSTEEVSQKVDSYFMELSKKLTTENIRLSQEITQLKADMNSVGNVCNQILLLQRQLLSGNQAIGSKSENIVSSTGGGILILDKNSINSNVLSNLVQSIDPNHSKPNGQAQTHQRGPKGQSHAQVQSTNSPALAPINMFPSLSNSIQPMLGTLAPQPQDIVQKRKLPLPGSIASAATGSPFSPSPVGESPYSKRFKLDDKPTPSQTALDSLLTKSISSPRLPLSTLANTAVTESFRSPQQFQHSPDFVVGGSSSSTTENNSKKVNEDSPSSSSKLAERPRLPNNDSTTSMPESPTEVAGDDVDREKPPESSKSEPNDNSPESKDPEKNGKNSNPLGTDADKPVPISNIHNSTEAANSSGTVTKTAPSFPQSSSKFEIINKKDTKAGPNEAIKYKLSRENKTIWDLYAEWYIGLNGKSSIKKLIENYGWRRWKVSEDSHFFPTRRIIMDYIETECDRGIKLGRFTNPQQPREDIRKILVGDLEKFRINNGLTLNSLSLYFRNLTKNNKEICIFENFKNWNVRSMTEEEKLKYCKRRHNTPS
# Assay: PBM E-score (8-mer binding enrichment) (E-score (-0.5 to 0.5)); higher = stronger / more preferred TF binding; most listed sequences are background and not binding sites
# Conditions: protein concentration: 100 nM; construct: GST-full length
# In short: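 Masliner-normalised scans of fluorescent anti-GST signal were the basis for scoring. That signal came from GST-tagged yeast transcription factors applied at about 100-200 nM to double-stranded universal all-10-mer Agilent arrays on fresh or once-stripped slides. Each ungapped eight-base word, pooled with its reverse complement, received an E-score from the Universal PBM Analysis Suite.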
row,Sequence,PBM E-score
1,GTGAATGA,-0.227
2,CAGACTGC,-0.0147
3,AAGGTACG,-0.0548
4,ACTTTGGG,0.174
5,AGAGATAG,0.0169
6,GCCGGGCA,-0.0853
7,ATACTTGA,-0.0859
8,AACCCCTA,0.044
9,GCCAGCGC,-0.0388
10,ACAATTAC,-0.055
11,TCTAAGAA,0.0856
12,ACTCGTAG,-0.186
13,AGACCGCG,-0.0635
14,AAGGCCAT,-0.392
15,CTGCGCAC,0.0368
16,GGCCTGTA,0.00404
17,CCTCTTGA,-0.134
18,GTGGGGAA,0.0372
19,ACGATCGT,-0.096
20,AGAACCAC,0.035
21,GTGTGTAA,-0.0207
22,ATCATGCA,-0.0453
23,AGAGGTTC,0.193
24,CTCACGAG,-0.0581
25,CTCAATTC,0.167

row,Sequence,PBM E-score
1,ACCATTGC,0.0464
2,GCGAAACA,0.0945
3,CGAGTTAC,-0.235
4,GCCGGTCA,-0.0552
5,GGTGTTAA,0.00498
6,AACGTAGT,-0.228
7,ATATGGTA,0.00898
8,CACATTGA,-0.0137
9,CGTTGTAA,-0.149
10,GTAAGATA,-0.0467
11,ACCCTGGC,-0.0123
12,GCTAAGCA,-0.0833
13,AAATAATG,0.123
14,CCGAATAC,0.258
15,GGACGAAC,0.00554
16,GCCCGAGA,0.0192
17,CCAAGCAC,-0.0882
18,GAAACGGC,-0.109
19,CAACTTTA,0.00622
20,CTCGTCAC,0.1
21,ACTACATC,-0.114
22,TATCAAAA,0.0902
23,GATCACAA,0.0422
24,ATATACAA,-0.0374
25,CCGAGAGC,-0.045

row,Sequence,PBM E-score
1,GCGCCCAA,0.18
2,TCTATAGA,-0.194
3,AAAGGAAC,0.219
4,AGGCCCAT,-0.0769
5,GAGGCCCC,0.0233
6,CTAACCTC,0.011
7,ACGGGTAA,-0.102
8,CAGCTTGG,-0.00404
9,GCGAAACC,0.0128
10,CACCGCAC,-0.0228
11,GCATGGCA,0.0488
12,GGTGATAC,-0.00348
13,AAAAGCAG,0.095
14,ACCGCGTC,0.0198
15,TATCGTAA,-0.0159
16,ACCGCCGC,0.0774
17,AAAGGTTA,-0.141
18,ATTAGCAA,0.108
19,AATACGTA,0.247
20,ATTATCAC,0.18
21,TATCTTAA,0.0235
22,TAGGTCCA,0.109
23,CCAGATGA,0.141
24,ACGGGAGC,0.0784
25,CACAGCAG,0.163

row,Sequence,PBM E-score
1,ACACGTGC,-0.111
2,CAACGGTA,-0.0142
3,ATAAGGAC,0.0366
4,AATCGATT,0.147
5,CAGCCACA,0.0295
6,CCCAAGCC,0.0119
7,CTGGCACC,0.392
8,CTGCGTAC,-0.0978
9,AGTCTCAC,-0.106
10,CATGAACG,-0.0993
11,GGGGGCGA,-0.0875
12,ACATCATC,0.0184
13,CTGGGTGC,0.244
14,GGCCAATA,-0.0435
15,AAACTATC,-0.19
16,ACTGTGAT,-0.201
17,CTCTATAA,0.0698
18,CATATAGG,0.0935
19,TACTGACA,0.0589
20,ATAAGCAC,0.0508
21,ACCGGCGA,0.021
22,AAACCAGC,-0.00341
23,GAAGTGGA,0.219
24,GGGAGGAA,-0.0689
25,TAGCGGCA,0.105

row,Sequence,PBM E-score
1,AGCTTACA,-0.16
2,CTCGTAGA,-0.0969
3,CGATTCCG,-0.0838
4,ATTGGCCA,-0.00804
5,TGGTGCAA,0.138
6,GTCCCTTA,-0.219
7,CCCATGAG,-0.0288
8,ATGAATGA,-0.0327
9,GGAAAGCC,0.0416
10,CGGTCTTC,0.0421
11,GTGATCGA,-0.243
12,GACCTCCA,0.11
13,TCCGGCGA,-0.0118
14,AACGCGGC,-0.0306
15,CCGGACAA,-0.0303
16,GGAGTATA,-0.121
17,ACTAAACG,0.0167
18,CTGACTAC,-0.0833
19,GTACGCCA,-0.167
20,GAAGATGA,-0.0956
21,ACCGTACA,-0.142
22,AACGACGA,0.0525
23,GAGAGCTA,-0.178
24,ACGGCGCT,-0.00448
25,ACTTAAGG,0.0916

row,Sequence,PBM E-score
1,ATAGGTGG,0.105
2,ACTCAACG,-0.176
3,ATTGACCC,-0.0689
4,AAACAAAC,0.0439
5,CTCCCAAA,0.0739
6,AAGATCTG,-0.101
7,CGCATCAA,-0.0181
8,AAAATGGT,0.175
9,ATATTTCA,0.0272
10,AACAAGGG,-0.215
11,AGCACCTC,-0.0162
12,CCTAAATA,0.129
13,ACCCCAAA,0.175
14,CAAATCAG,0.0595
15,GGGGCCCA,0.199
16,TACGACGA,-0.0661
17,GGCTCATA,-0.155
18,CATTCCGA,0.0382
19,CTGATAGC,-0.204
20,ATTGAAAG,-0.00665
21,CCGAAATA,0.247
22,CCTGTTTC,0.186
23,AGCAGTCA,0.0392
24,AGGCCCAA,-0.0311
25,TTATAGAA,0.027

row,Sequence,PBM E-score
1,CGCCACAG,0.0993
2,AGGTTGAA,-0.00247
3,CACGTCCC,-0.0357
4,AAGAGCTG,-0.0201
5,AAATACCG,0.118
6,ATGTCCTA,-0.0152
7,ACATCCCT,-0.0835
8,TGTAGGAA,0.0643
9,TGCCAACA,0.0456
10,AGTTAGTG,-0.155
11,AAATAGAT,0.125
12,TATCGGGA,0.18
13,CCGTTACA,-0.142
14,CCTGCAGC,0.153
15,GCCGCATA,-0.082
16,TATCCATA,0.0196
17,ACTTTTGG,0.0757
18,AAACCGTG,0.051
19,ACAACCGT,-0.229
20,ACGTCCGC,-0.107
21,ACTCGAAA,0.0966
22,TACATCTA,0.0674
